# Assay results taken from the supplement of paper PMC8728848.
# The list shows a part of the results.
# B1: Banana lectin (Musa acuminata) (protein)
# chain: MNGAIKVGAHGGNGGSAFDMGPAYRIISVKIFSGDVVDGVDVTFTYYGKTETRHYGGSGGTPHEIVLQEGEYLVGMAGEVANYHGAVVLGKLGFSTNKKAYGPFGNTGGTPFSLPIAAGKISGFFGRGGKFLDAIGVYLEPLEHHHHHH
# Legend:
# Assay in all cases: glycan array binding signal (z-score within array); higher = stronger binding
# Settings in all cases: glycan notation: IUPAC condensed, linker removed; mutation: W10H
# [1] = target: Gal(b1-4)GlcNAc(b1-3)Gal(b1-4)GlcNAc(b1-3)[Gal(b1-4)GlcNAc(b1-3)Gal(b1-4)GlcNAc(b1-6)]GalNAc
# In short: (§1)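 From the Consortium for Functional Glycomics database, 3228 arrays were curated, keeping only those whose protein sequence was available. Binding is given as a within-array Z-score averaged across arrays sharing a protein sequence and across linkers. Negative Z-scores can be read as non-binding.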
# [2] = target: Gal(b1-4)GlcNAc(b1-3)Gal(b1-4)GlcNAc(b1-6)[Gal(b1-3)]GalNAc
# In short: as §1
# [3] = target: Gal(b1-4)GlcNAc(b1-3)Gal(b1-4)[Fuc(a1-3)]GlcNAc(b1-3)Gal(b1-4)[Fuc(a1-3)]GlcNAc
# In short: as §1
# [4] = target: Gal(b1-4)GlcNAc(b1-3)GalNAc
# In short: as §1
# [5] = target: Gal(b1-4)GlcNAc(b1-3)[Fuc(a1-3)GlcNAc(b1-6)]Gal(b1-4)Glc
# In short: as §1
# [6] = target: Gal(b1-4)GlcNAc(b1-3)[Gal(b1-4)GlcNAc(b1-6)]Gal(b1-4)GlcNAc
# In short: as §1
# [7] = target: Gal(b1-4)GlcNAc(b1-3)[GlcNAc(b1-6)]Gal(b1-4)GlcNAc
# In short: as §1
# [8] = target: Gal(b1-4)GlcNAc(b1-6)Gal(b1-4)GlcNAc
# In short: as §1
# [9] = target: Gal(b1-4)GlcNAc(b1-6)GalNAc
# In short: as §1
# [10] = target: Gal(b1-4)GlcNAc(b1-6)[Gal(b1-3)]GalNAc
# In short: as §1
# [11] = target: Gal(b1-4)GlcNAc(b1-6)[Gal(b1-4)GlcNAc(b1-3)]GalNAc
# In short: as §1
# Gal(b1-4)GlcNAc6P = target: Gal(b1-4)GlcNAc6P
# In short: as §1
# Gal(b1-6)Gal = target: Gal(b1-6)Gal
# In short: as §1
# Gal3S(b1-3)GalNAc = target: Gal3S(b1-3)GalNAc
# In short: as §1
# Gal3S(b1-3)GlcNAc = target: Gal3S(b1-3)GlcNAc
# In short: as §1
# [12] = target: Gal3S(b1-3)[Fuc(a1-4)]GlcNAc
# In short: as §1
# Gal3S(b1-4)Glc = target: Gal3S(b1-4)Glc
# In short: as §1
# Gal3S(b1-4)Glc6S = target: Gal3S(b1-4)Glc6S
# In short: as §1
# Gal3S(b1-4)GlcNAc = target: Gal3S(b1-4)GlcNAc
# In short: as §1
# [13] = target: Gal3S(b1-4)[Fuc(a1-3)]Glc6S
# In short: as §1
# [14] = target: Gal3S(b1-4)[Fuc(a1-3)]GlcNAc
# In short: as §1
# [15] = target: Gal3S(b1-4)[Fuc(a1-3)]GlcNAc6S
# In short: as §1
# Gal3S4S(b1-4)GlcNAc = target: Gal3S4S(b1-4)GlcNAc
# In short: as §1
# Gal3S6S(b1-4)GlcNAc = target: Gal3S6S(b1-4)GlcNAc
# In short: as §1
# Gal3S6S(b1-4)GlcNAc6S = target: Gal3S6S(b1-4)GlcNAc6S
# In short: as §1
# Gal4S(b1-4)GlcNAc = target: Gal4S(b1-4)GlcNAc
# In short: as §1
# Gal4S6S(b1-4)GlcNAc = target: Gal4S6S(b1-4)GlcNAc
# In short: as §1
# Gal6P(b1-4)GlcNAc = target: Gal6P(b1-4)GlcNAc
# In short: as §1
# Gal6S(b1-3)GlcNAc = target: Gal6S(b1-3)GlcNAc
# In short: as §1
# Gal6S(b1-3)GlcNAc6S = target: Gal6S(b1-3)GlcNAc6S
# In short: as §1
# Gal6S(b1-4)Glc = target: Gal6S(b1-4)Glc
# In short: as §1
# Gal6S(b1-4)Glc6S = target: Gal6S(b1-4)Glc6S
# In short: as §1
# Gal6S(b1-4)GlcNAc = target: Gal6S(b1-4)GlcNAc
# In short: as §1
# Gal6S(b1-4)GlcNAc6S = target: Gal6S(b1-4)GlcNAc6S
# In short: as §1
# GalNAc(a1-3)Gal = target: GalNAc(a1-3)Gal
# In short: as §1
# GalNAc(a1-3)GalNAc = target: GalNAc(a1-3)GalNAc
# In short: as §1
# [16] = target: GalNAc(a1-3)GalNAc(b1-3)Gal(a1-4)Gal(b1-4)Glc
# In short: as §1
# [17] = target: GalNAc(a1-3)GalNAc(b1-3)Gal(a1-4)Gal(b1-4)GlcNAc
# In short: as §1
# GalNAc(b1-3)Gal = target: GalNAc(b1-3)Gal
# In short: as §1
# [18] = target: GalNAc(b1-3)Gal(a1-4)Gal(b1-4)GlcNAc
# In short: as §1
# [19] = target: GalNAc(b1-3)Gal(a1-4)Gal(b1-4)GlcNAc(b1-3)Gal(b1-4)Glc
# In short: as §1
# [20] = target: GalNAc(b1-3)Gal(a1-6)Gal(b1-4)Glc
# In short: as §1
# GalNAc(b1-3)GalNAc = target: GalNAc(b1-3)GalNAc
# In short: as §1
# GalNAc(b1-3)GlcNAc = target: GalNAc(b1-3)GlcNAc
# In short: as §1
# GalNAc(b1-4)Gal(b1-4)Glc = target: GalNAc(b1-4)Gal(b1-4)Glc
# In short: as §1
binder,measurement,setting,value
B1,glycan array binding signal (z-score),[1],-0.168
same,glycan array binding signal (z-score),[2],-0.088
same,glycan array binding signal (z-score),[3],-0.163
same,glycan array binding signal (z-score),[4],-0.17
same,glycan array binding signal (z-score),[5],-0.141
same,glycan array binding signal (z-score),[6],-0.154
same,glycan array binding signal (z-score),[7],-0.194
same,glycan array binding signal (z-score),[8],-0.191
same,glycan array binding signal (z-score),[9],-0.163
same,glycan array binding signal (z-score),[10],-0.17
same,glycan array binding signal (z-score),[11],-0.161
same,glycan array binding signal (z-score),Gal(b1-4)GlcNAc6P,-0.168
same,glycan array binding signal (z-score),Gal(b1-6)Gal,-0.191
same,glycan array binding signal (z-score),Gal3S(b1-3)GalNAc,-0.192
same,glycan array binding signal (z-score),Gal3S(b1-3)GlcNAc,-0.175
same,glycan array binding signal (z-score),[12],-0.171
same,glycan array binding signal (z-score),Gal3S(b1-4)Glc,-0.18
same,glycan array binding signal (z-score),Gal3S(b1-4)Glc6S,-0.151
same,glycan array binding signal (z-score),Gal3S(b1-4)GlcNAc,-0.191
same,glycan array binding signal (z-score),[13],-0.149
same,glycan array binding signal (z-score),[14],-0.158
same,glycan array binding signal (z-score),[15],-0.151
same,glycan array binding signal (z-score),Gal3S4S(b1-4)GlcNAc,-0.197
same,glycan array binding signal (z-score),Gal3S6S(b1-4)GlcNAc,-0.168
same,glycan array binding signal (z-score),Gal3S6S(b1-4)GlcNAc6S,-0.156
same,glycan array binding signal (z-score),Gal4S(b1-4)GlcNAc,-0.174
same,glycan array binding signal (z-score),Gal4S6S(b1-4)GlcNAc,-0.182
same,glycan array binding signal (z-score),Gal6P(b1-4)GlcNAc,-0.178
same,glycan array binding signal (z-score),Gal6S(b1-3)GlcNAc,-0.135
same,glycan array binding signal (z-score),Gal6S(b1-3)GlcNAc6S,-0.174
same,glycan array binding signal (z-score),Gal6S(b1-4)Glc,-0.156
same,glycan array binding signal (z-score),Gal6S(b1-4)Glc6S,-0.172
same,glycan array binding signal (z-score),Gal6S(b1-4)GlcNAc,-0.124
same,glycan array binding signal (z-score),Gal6S(b1-4)GlcNAc6S,-0.186
same,glycan array binding signal (z-score),GalNAc(a1-3)Gal,-0.158
same,glycan array binding signal (z-score),GalNAc(a1-3)GalNAc,-0.154
same,glycan array binding signal (z-score),[16],-0.124
same,glycan array binding signal (z-score),[17],-0.194
same,glycan array binding signal (z-score),GalNAc(b1-3)Gal,-0.168
same,glycan array binding signal (z-score),[18],-0.167
same,glycan array binding signal (z-score),[19],-0.151
same,glycan array binding signal (z-score),[20],-0.153
same,glycan array binding signal (z-score),GalNAc(b1-3)GalNAc,-0.156
same,glycan array binding signal (z-score),GalNAc(b1-3)GlcNAc,-0.151
same,glycan array binding signal (z-score),GalNAc(b1-4)Gal(b1-4)Glc,-0.133
